# Assay results as given in PubChem BioAssay AID624417 (National Center for Advancing Translational Sciences (NCATS), 2012).
# Several values for one entry are separate records, joined by “and”; a condition that tells them apart may be missing. Equal values may be shown once. In all, about 410,000 compounds went through this assay and about 6,400 (1.6%) were called active. Inconclusive means that the source gave no clear call. Such entries were picked first, then a sample of the others. Calls follow the shape of the dose curve; as a rule, active = well fitted inhibition curve with a large enough effect; inconclusive = small, poorly fitted or top-dose-only effect; inactive = no such curve, though single readings can be large or run the other way. Potencies of inconclusive entries are doubtful fits and often do not repeat.
# Molecular target: Glucagon-like peptide 1 receptor (Homo sapiens) (UniProt P43220)
# Assay: qHTS of GLP-1 Receptor Inverse Agonists (Inhibition Mode); also: nearly all actives have a fitted effect of over 55% in size
# Conditions: HEK293 GLP-1R CRE-luciferase, luminescence, 24 h, GLP-1R form is constitutively active; series mostly up to 38.3 µM
# In short: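 Inverse agonism was detected as reduced cAMP-driven luciferase luminescence after 24 h compound treatment. The cells were HEK293 clones expressing constitutively active human GLP-1R with the reporter. Reporter-only and GPR119 cell lines served as counterscreen controls.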
# Potency is read from the fitted curve at half-maximal effect; tags tell the direction and shape of the fitted curve.
# UniProt P43220, sequence (P43220 whole entry, looked up): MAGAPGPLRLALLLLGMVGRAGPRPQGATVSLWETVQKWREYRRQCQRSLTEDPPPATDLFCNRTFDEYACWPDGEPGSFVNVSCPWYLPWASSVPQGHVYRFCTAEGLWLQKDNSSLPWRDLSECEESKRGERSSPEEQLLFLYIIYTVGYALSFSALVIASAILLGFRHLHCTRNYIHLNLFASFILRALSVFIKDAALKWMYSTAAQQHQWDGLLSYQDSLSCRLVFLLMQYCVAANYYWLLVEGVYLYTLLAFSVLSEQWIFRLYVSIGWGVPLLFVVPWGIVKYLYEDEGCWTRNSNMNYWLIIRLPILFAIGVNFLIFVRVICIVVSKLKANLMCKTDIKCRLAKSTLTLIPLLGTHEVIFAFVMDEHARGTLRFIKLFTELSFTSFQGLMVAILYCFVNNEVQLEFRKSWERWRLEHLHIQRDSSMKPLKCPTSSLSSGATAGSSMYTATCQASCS
row,SMILES,Potency
1,COc1ccc(NC(=O)c2cccn2-c2nnc(N3CCCCC3)s2)cc1,inactive
2,Nc1cnn(Cc2ccccc2F)c1,"inconclusive: 11.2 µM [inhibitor, partial curve, poor fit]"
3,Cc1ccc(SCC(=O)Nc2ccc(-c3nc4ccccc4[nH]3)cc2)cc1,inactive
4,CCOC(=O)c1c(-c2ccccc2)oc2ccc(O)cc12,"inconclusive: 11.2 µM [inhibitor, partial curve, poor fit]"
5,COc1ccc(C(CCNC(C)c2ccccc2)c2ccc(F)cc2)cc1 (stereo unspecified),"inconclusive: 11.2 µM [inhibitor, partial curve, poor fit]"
6,CC(=O)NC(CC(=O)N(C)C1CCCCC1)c1ccccc1 (stereo unspecified),inactive
7,CC[C@@H](CC1CCCCC1)C(=O)N(Cc1ccccc1)c1ccccc1,"inconclusive: 28.2 µM [inhibitor, single point]"
8,CCSC1=C(C#N)C(c2ccccc2Cl)C(C(=O)c2cccs2)C(O)(C(F)(F)F)N1 (stereo unspecified),"inconclusive: 8.91 µM [inhibitor, partial curve, poor fit]"
9,CCN1CCN(c2ccc(Cl)cc2NC(=O)c2ccc(-n3nc(C)cc3C)cc2)CC1,"inconclusive: 7.08 µM [inhibitor, partial curve, poor fit]"
10,Nc1c([N+](=O)[O-])c(=O)oc2ccccc12,inactive
11,Cc1ccc(OCc2cc(C(=O)NCc3cn4ccccc4n3)no2)cc1C,"inconclusive: 10 µM [inhibitor, partial curve]"
12,O=C(Nc1ccc(-c2cscn2)cc1)C1CCCN(Cc2ccccc2)C1 (stereo unspecified),"inconclusive: 11.2 µM [inhibitor, single point]"
13,CCc1ccc(OCC(O)CN2CCN(c3ccccn3)CC2)cc1 (stereo unspecified),"inconclusive: 10 µM [inhibitor, partial curve, poor fit]"
14,CC1(Oc2ccccc2)CCN(Cc2csc3ccccc23)C1 (stereo unspecified),"inconclusive: 4.47 µM [inhibitor, partial curve]"
15,CN(C)CCOCCSc1ccc(Cl)cc1,inactive
16,CC1=C(C(=O)OCC2CCCO2)C(c2ccccc2OC(C)C)C2=C(CC(c3ccco3)CC2=O)N1 (stereo unspecified),"inconclusive: 12.6 µM [inhibitor, single point]"
17,COC(=O)Cc1ccc(NC(=S)NCc2ccccc2Cl)cc1,"inconclusive: 28.2 µM [inhibitor, single point]"
18,Cc1ccc(OC(F)F)c(NC(=O)Nc2ccc3c(c2)OCO3)c1,"inconclusive: 11.2 µM [inhibitor, partial curve, poor fit]"
19,O=C(Nc1ccc(Br)cn1)c1cccc2ccccc12,"inconclusive: 5.01 µM [inhibitor, full curve, poor fit]"
20,Cc1cccc(OCCn2c(=O)sc3ccccc32)c1,"inconclusive: 11.2 µM [inhibitor, single point]"
21,Cc1cccc(OCC(=O)Nc2ccccc2C(F)(F)F)c1,inactive
22,O=C(OCC(=O)N(CCc1ccccc1)Cc1ccccc1)c1cccc(S(=O)(=O)N2CCOCC2)c1,"inconclusive: 31.6 µM [inhibitor, partial curve, poor fit]"

row,SMILES,Potency
1,O=C(NCCc1ccccc1)c1cnn(-c2ccc(F)cc2)c1-n1cccc1,"inconclusive: 22.4 µM [inhibitor, single point]"
2,CCc1ccc(CNC(=O)CN2CCSc3ccccc32)cc1,"inconclusive: 10 µM [inhibitor, single point]"
3,O=C(CN1C(=O)COc2ccc(S(=O)(=O)N3CCCCCC3)cc21)NCc1ccc(F)cc1,"inconclusive: 10 µM [inhibitor, single point] and inconclusive: 7.94 µM [inhibitor, partial curve, poor fit]"
4,O=C(NCCCN1CCN(c2ccc(F)cc2)CC1)NC12CC3CC(CC(C3)C1)C2,"inconclusive: 3.16 µM [inhibitor, partial curve, poor fit]"
5,CNC(=S)N1N=C(c2ccc(C)cc2)CC1c1cc(OC)ccc1OC (stereo unspecified),active: 10 µM
6,Cc1cc(C)c2cc(CN(CCN(C)C)C(=O)Nc3ccccc3Cl)c(=O)[nH]c2c1,active: 10 µM
7,Cc1c(NC(=O)c2ccc(NS(=O)(=O)c3ccccc3)cc2)c(=O)n(-c2ccccc2)n1C,inactive
8,CC1(C(=O)NS(=O)(=O)c2ccc(Br)cc2)CCN1C(=O)Cc1ccsc1 (stereo unspecified),"inconclusive: 28.2 µM [inhibitor, single point]"
9,CC12CC3CC(C)(C1)CC(C(=O)N1CCN(C(=O)c4ccco4)CC1)(C3)C2,"inconclusive: 8.91 µM [inhibitor, partial curve, poor fit]"
10,Cc1cc(Nc2cccc(Cl)c2)nc2ccc(NC(=O)c3cccnc3)cc12,"inconclusive: 12.6 µM [inhibitor, partial curve, poor fit]"
11,Nc1c(C(=O)NCCN2CCOCC2)c2nc3ccccc3nc2n1-c1cccc(F)c1,"inconclusive: 10 µM [inhibitor, partial curve, poor fit]"
12,COc1cccc(CNc2cccc(C(F)(F)F)c2)c1O,"inconclusive: 28.2 µM [inhibitor, single point]"
13,Cc1ccc(NC(=O)c2ccc(Cl)nc2)cc1S(=O)(=O)N1CCOCC1,"inconclusive: 7.94 µM [inhibitor, partial curve, poor fit]"
14,CCCSCCCNC(=O)c1ccc2nc(Cc3ccccc3)oc2c1,inactive
15,CCSc1ncc(Cl)c(C(=O)Nc2ccc(S(=O)(=O)N(C)c3ccccc3)cc2)n1,"inconclusive: 7.94 µM [inhibitor, partial curve, poor fit]"
16,CC(C)COc1ccc(C(=O)CCN2CCCCC2)cc1,"inconclusive: 6.31 µM [inhibitor, partial curve, poor fit]"
17,CN(C)S(=O)(=O)c1cccc(-n2sc3ccccc3c2=O)c1,inactive
18,CN(C)CC(O)COc1cc2ccccc2cc1C(=O)N1CCCCC1 (stereo unspecified),inactive
19,Cc1cc(Nc2cccc(F)c2)nc(N2CCOCC2)n1,"inconclusive: 28.2 µM [inhibitor, single point]"
20,CCOC(=O)C1(Cc2ccccc2C(F)(F)F)CCN(C(C)CSC)CC1 (stereo unspecified),"inconclusive: 10 µM [inhibitor, partial curve, poor fit]"
21,Cc1cccc(-c2ocnc2C(=O)Nc2ccccc2NC(=O)c2ccccn2)c1,active: 0.501 µM
22,O=S(=O)(NCc1cn2ccsc2n1)c1ccc(Oc2ccccc2)cc1,"inconclusive: 1.78 µM [inhibitor, partial curve, poor fit]"

row,SMILES,Potency
1,O=C(Cc1ccccc1)Nc1ccc2c(c1)OC1(CCCC1)O2,"inconclusive: 20 µM [inhibitor, single point]"
2,CCS(=O)(=O)Nc1ccc(C2=NN(C(=S)Nc3ccccc3)C(c3ccco3)C2)cc1 (stereo unspecified),"inconclusive: 28.2 µM [inhibitor, single point]"
3,Cc1ccc(Cc2c(-c3ccc(Cl)cc3)nc3ccc(Cl)cn23)cc1,"inconclusive: 12.6 µM [inhibitor, single point]"
4,Cc1cccc(C(=O)NCC(=O)N2CCN(c3ccc(Cl)cc3)CC2)c1,"inconclusive: 10 µM [inhibitor, single point]"
5,CN(C)CCCNC(=O)N1c2ccccc2Sc2ccccc21,"inconclusive: 28.2 µM [inhibitor, single point]"
6,Cc1cc(OCC(=O)N(Cc2sccc2C)C2CCS(=O)(=O)C2)ccc1Cl (stereo unspecified),"inconclusive: 22.4 µM [inhibitor, single point]"
7,Cc1ccc(Cl)cc1NC(=O)CSC(N)=O,inactive
8,Cc1cccc(NC(=O)C2C(c3ccccc3)C2(Cl)Cl)c1 (stereo unspecified),"inconclusive: 12.6 µM [inhibitor, partial curve, poor fit]"
9,O=C(Cc1cccc(C(F)(F)F)c1)NCc1ccc(Cl)cc1Cl,"inconclusive: 2.82 µM [inhibitor, single point]"
10,CCCc1cc(C(=O)Nc2cccc([N+](=O)[O-])c2)cs1,"inconclusive: 28.2 µM [inhibitor, single point]"
11,O=C(CCc1ccc(Oc2cc([N+](=O)[O-])cc([N+](=O)[O-])c2)cc1)N1CCCCC1,"inconclusive: 10 µM [inhibitor, partial curve, poor fit]"
12,O=C1CCN(Cc2nc(-c3ccc(Cl)cc3)no2)CCN1,active: 4.47 µM
13,COc1ccc(F)cc1S(=O)(=O)NCCc1sc2nc(-c3ccc(F)cc3)nn2c1C,"inconclusive: 20 µM [inhibitor, single point]"
14,CCCc1cc(C(=O)N/N=C/c2ccc(C)o2)c2ccccc2n1,"inconclusive: 28.2 µM [inhibitor, single point]"
15,O=S(=O)(c1ccc2ccccc2c1)N1CCN(C2CCN(Cc3ccccc3)CC2)CC1,inactive
16,CCCCNCC(O)(c1ccc(Cl)cc1)c1ccc(Cl)cc1,"inconclusive: 10 µM [inhibitor, partial curve, poor fit]"
17,O=C(NCCc1ccccc1)c1cccc(Br)c1,"inconclusive: 25.1 µM [inhibitor, single point]"
18,CCCN(CCC)c1nc2ccccc2n2c(C)nnc12,"inconclusive: 31.6 µM [inhibitor, single point]"
19,CCN(CC)S(=O)(=O)c1ccc(Cl)c(C(=O)OC2CC(C)OC2=O)c1 (stereo unspecified),inactive
20,CC(C)N1CCC(C)(C(=O)Nc2ccc(-n3cccc3)cc2)C1 (stereo unspecified),"inconclusive: 12.6 µM [inhibitor, partial curve, poor fit]"
21,COc1cc(C(=S)N2CCOCC2)ccc1OC(=O)c1cccc(C)c1,"inconclusive: 28.2 µM [inhibitor, single point]"
22,COC(=O)c1c(NC(=O)CN2CCC3(O)CCCCC3C2c2ccc(OC)cc2OC)sc(C)c1C (stereo unspecified),"inconclusive: 28.2 µM [inhibitor, single point]"
